Results are given in words; binding and its absence hold for the method and conditions named. In cells and extracts the contact can be indirect. Some entries that bind do so weakly or less than the wild type.
B1: Nub–Msb3 (protein, UniProt P48566 1-633)
chain: MQNDQQRFSLQNRTVLAHPYKRLGGAFTVKSPSVPNFHDKMHSDHSSSDSALVNGSFRANDHRSVEPSCLGQASPSEHDGNLSVIDLYGDEVESQRAEGEDDDDNNGDNGNEDLEEVHSDDLDLVPDDDNRQRVELEGAASATSANSNGINNTHFDRYGFKKQNNYISEAEYDKWWVEYSQYCVRRKHKWQLLLEKSGLPVTDDSPSRFPSKSERLKRYVRKGIPAEWRGNAWWHFARGQEKLNKNKGVYSQLLRKMKQIKKQNPNEKQVQDLDIIERDLNRTFPDNIHFQSSLHNKEGPPIIKSLRRVLVAFSLYNPKIGYCQSMNFLAGLLLLFLDEERAFWMLVIITSRYLPGVHNINLEGVNIDQGVLMLCVKEYIPEVWSYIKPSIDHHQKNNKTFSPSNKKVLFNMQKNEFLYRLPPITLCTASWFMSCFVGVVPIETTLRIWDCLFYEESHFLFKVSLAVLKLSEHDLSKIKPRNNSLNYSWGSNLNQRGGSMGQEDSDMEIFQVIQTFPKTLLNPNEIFEKIIFKRRFNLNRLDQDEIDRCRKFVAAQRLKFKTYGELLGNSTSEADLPINDNTDNKGIHITSDAVNEALSSEVYGFKKSLAGVHWNNSIKEKVKQMRKKKDKGD
B2: Nub–Msb4 (protein, UniProt Q12317 1-492)
chain: MIMSSTMSTEAALVPNESVFDTVSSFNEDDANYSVLDLYDDDDEGDDSSTVERKEILTTRELEKAKAFTSLIMADPENFDRYGFSKKGYFISQEEYDKWWTEYNRYTERRKKKWENFLLKNKIELHNDNPLVYPARTDELSKFVRKGIPAEWRGNAWWYFAGGQRQLDANVGVYDRLKSDCREGAVSGKDMEAIERDLYRTFPDNIHFHKESFQNGEPAIIRSLRRVLMAFSVYDKTIGYCQSMNFLVGLLLLFMEEEKAFWMLVIITGKYLPGVYESDLEGANVDQGVLVLCIKEYLPEIWSHIESSYMNGNGSTDQISGPASGEEYLCRLPTLTLCTASWFMSCFVGVVPIETTLRIWDCLFYEESHFLFKVALGILKLSESEFLESKSQKLFRQYSSYTFGGSNDSDSTFKRLKNKIKTQEEADMEILQVIQNFPKRLLNPNDIFEKVLMKKKVALNGITQEKIDRGREYVAMARNRQRASSRPKERRK

Amino acid sequences for entries named in this document (tags omitted). A change or cut given only in a name is not applied to a line headed by its entry. Chains listed by the source or under a name are the forms on record and can include a tag or linker. Residues count along the entry.
UniProt P06784: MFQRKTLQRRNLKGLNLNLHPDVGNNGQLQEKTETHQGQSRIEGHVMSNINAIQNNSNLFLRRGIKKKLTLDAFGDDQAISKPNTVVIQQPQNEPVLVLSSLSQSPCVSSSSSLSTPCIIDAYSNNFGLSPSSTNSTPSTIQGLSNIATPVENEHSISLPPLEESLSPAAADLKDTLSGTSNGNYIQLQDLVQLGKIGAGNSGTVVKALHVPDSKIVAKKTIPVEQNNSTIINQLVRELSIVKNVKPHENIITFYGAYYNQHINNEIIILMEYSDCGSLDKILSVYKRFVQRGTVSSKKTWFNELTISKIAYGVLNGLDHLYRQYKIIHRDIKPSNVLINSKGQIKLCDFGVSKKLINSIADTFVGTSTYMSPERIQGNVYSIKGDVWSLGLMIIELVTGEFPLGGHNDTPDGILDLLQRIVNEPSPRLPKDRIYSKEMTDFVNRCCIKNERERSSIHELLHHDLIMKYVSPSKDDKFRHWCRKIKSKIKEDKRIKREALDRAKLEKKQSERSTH
UniProt P23201: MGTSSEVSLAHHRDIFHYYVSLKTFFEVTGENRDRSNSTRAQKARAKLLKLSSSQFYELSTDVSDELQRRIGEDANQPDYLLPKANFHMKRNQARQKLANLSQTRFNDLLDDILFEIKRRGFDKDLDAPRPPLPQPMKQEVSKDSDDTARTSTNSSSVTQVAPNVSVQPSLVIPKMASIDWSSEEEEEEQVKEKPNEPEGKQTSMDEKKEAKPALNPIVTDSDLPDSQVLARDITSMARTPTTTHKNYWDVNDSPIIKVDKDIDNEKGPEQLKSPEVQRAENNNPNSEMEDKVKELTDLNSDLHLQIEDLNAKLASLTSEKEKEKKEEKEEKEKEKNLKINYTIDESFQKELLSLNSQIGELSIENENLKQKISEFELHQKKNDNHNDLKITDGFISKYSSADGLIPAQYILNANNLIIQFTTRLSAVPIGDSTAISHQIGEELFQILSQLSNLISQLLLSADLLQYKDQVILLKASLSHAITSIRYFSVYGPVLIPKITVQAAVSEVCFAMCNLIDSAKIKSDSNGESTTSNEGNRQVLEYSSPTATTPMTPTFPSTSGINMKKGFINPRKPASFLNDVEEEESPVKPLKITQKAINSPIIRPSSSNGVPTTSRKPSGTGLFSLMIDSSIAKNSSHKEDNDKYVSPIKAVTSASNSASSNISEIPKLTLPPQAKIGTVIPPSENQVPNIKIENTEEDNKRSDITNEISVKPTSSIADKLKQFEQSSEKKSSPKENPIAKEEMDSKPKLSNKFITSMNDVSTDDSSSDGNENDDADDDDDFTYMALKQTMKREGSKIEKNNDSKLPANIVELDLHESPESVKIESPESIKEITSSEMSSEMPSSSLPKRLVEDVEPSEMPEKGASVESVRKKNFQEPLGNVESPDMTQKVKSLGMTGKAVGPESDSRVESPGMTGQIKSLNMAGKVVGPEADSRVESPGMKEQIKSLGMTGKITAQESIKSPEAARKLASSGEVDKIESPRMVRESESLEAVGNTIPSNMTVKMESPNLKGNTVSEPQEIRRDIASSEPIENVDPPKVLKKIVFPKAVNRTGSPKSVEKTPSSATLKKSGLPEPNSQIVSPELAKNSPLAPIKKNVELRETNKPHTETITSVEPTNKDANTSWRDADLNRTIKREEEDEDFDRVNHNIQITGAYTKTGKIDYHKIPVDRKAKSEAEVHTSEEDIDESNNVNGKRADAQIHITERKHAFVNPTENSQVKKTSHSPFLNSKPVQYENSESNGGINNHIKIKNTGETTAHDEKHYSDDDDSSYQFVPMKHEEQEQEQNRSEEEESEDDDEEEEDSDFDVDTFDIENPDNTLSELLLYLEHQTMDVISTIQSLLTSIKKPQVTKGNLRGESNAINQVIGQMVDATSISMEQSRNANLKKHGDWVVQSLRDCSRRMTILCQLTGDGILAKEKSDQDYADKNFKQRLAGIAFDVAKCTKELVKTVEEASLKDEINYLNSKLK
SHD1CRU: residues 1-124 of P23201
SHD1CRU with L48A (P23201, form named): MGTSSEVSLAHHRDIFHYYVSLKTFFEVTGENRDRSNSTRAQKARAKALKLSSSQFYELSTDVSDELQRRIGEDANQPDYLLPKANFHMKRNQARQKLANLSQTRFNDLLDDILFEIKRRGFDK
SHD1CRU with L51A (P23201, form named): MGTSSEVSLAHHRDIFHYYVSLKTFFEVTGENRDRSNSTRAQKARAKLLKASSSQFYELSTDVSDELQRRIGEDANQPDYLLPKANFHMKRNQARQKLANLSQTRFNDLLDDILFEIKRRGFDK
SHD1CRU with L101A (P23201, form named): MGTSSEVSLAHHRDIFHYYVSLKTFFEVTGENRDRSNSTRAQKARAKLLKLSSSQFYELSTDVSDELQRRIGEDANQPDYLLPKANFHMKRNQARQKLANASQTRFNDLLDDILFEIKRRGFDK
SHD1CRU with L109A (P23201, form named): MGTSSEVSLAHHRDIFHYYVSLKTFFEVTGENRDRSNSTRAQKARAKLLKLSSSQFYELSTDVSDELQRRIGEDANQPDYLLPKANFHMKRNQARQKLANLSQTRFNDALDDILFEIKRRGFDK
SHD1CRU with L101A and L109A (P23201, form named): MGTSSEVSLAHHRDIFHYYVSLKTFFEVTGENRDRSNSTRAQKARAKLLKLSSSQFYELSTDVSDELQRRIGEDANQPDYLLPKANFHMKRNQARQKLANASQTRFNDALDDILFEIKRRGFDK
SHD1CRU with L48A and L51A (P23201, form named): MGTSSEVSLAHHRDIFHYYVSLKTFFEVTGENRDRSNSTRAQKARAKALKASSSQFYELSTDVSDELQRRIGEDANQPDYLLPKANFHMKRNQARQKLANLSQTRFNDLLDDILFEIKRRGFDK
UniProt Q08729: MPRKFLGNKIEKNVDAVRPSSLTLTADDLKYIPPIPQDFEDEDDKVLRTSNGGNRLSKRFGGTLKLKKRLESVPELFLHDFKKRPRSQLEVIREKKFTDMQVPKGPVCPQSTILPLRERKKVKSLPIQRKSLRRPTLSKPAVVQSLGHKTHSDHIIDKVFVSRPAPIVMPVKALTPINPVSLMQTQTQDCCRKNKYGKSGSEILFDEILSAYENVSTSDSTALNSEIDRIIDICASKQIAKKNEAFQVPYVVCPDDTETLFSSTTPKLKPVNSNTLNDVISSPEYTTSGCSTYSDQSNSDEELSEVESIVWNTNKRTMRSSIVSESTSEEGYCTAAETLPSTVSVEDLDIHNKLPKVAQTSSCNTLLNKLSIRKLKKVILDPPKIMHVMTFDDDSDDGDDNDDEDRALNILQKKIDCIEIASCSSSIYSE

Columns and labels:
[1] = target: Ste7_(105-165)–Spa2CRU (Saccharomyces cerevisiae) (UniProt P06784+P23201); assay: split reporter; foldback competition assay with full-length Spa2CRU extended at its N-terminus, Split-Ub as in Fig. 1E (transformants transferred onto 5-FOA medium) (Fig. 3B)
[2] = target: Msb4_(22-81Δ35-39)–Spa2CRU (Saccharomyces cerevisiae) (UniProt Q12317+P23201); assay: as above
[3] = target: full-length Spa2CRU (Saccharomyces cerevisiae) (UniProt P23201); assay: as above
[4] = target: Msb4_(22-81)–Spa2CRU (Saccharomyces cerevisiae) (UniProt Q12317+P23201); assay: as above
[5] = target: SHD1CRU (Saccharomyces cerevisiae) (UniProt P23201); assay: split reporter; large-scale split-ubiquitin (Split-Ub) array: PMET17-SHD1CRU a-strain mated with a library of Nub-fusion α-strains; diploids as quadruplets on SD medium without methionine with 1 mg/ml 5-FOA and copper sulfate; colony growth indicates interaction
[6] = target: SHD1CRU (Saccharomyces cerevisiae) (UniProt P23201); assay: split reporter; small-scale Split-Ub: diploid cells co-expressing a Nub and a CRU fusion spotted in 10-fold serial dilutions from OD600=1 on SD medium with 5-FOA, 30°C, 2-5 days
[7] = target: SHD1CRU with L48A (Saccharomyces cerevisiae) (UniProt P23201); assay: as above
[8] = target: SHD1CRU with L51A (Saccharomyces cerevisiae) (UniProt P23201); assay: as above
[9] = target: SHD1_(K97D) (CRU fusion) (Saccharomyces cerevisiae) (UniProt P23201); assay: as above
[10] = target: SHD1CRU with L101A (Saccharomyces cerevisiae) (UniProt P23201); assay: as above
[11] = target: SHD1CRU with L109A (Saccharomyces cerevisiae) (UniProt P23201); assay: as above
[12] = target: SHD1CRU (Saccharomyces cerevisiae) (UniProt P23201); assay: split reporter; foldback competition assay, Split-Ub spotted as in Fig. 1C: SHD1CRU extended at its N-terminus by an FRM-containing stretch that occupies the pocket intramolecularly; loss of the Nub–Msb3 signal on 5-FOA is read as binding of the stretch (Fig. 3C, 7C)
[13] = target: Dse3_(181-240Δ208-212)–SHD1CRU (Saccharomyces cerevisiae) (UniProt Q08729+P23201); assay: as above
[14] = target: SHD1CRU with L101A and L109A (Saccharomyces cerevisiae) (UniProt P23201); assay: split reporter; small-scale Split-Ub: diploid cells co-expressing a Nub and a CRU fusion spotted in 10-fold serial dilutions from OD600=1 on SD medium with 5-FOA, 30°C, 2-5 days
[15] = target: SHD1CRU with L48A and L51A (Saccharomyces cerevisiae) (UniProt P23201); assay: as above

| Binder | binding [1] | binding [2] | binding [3] | binding [4] | binding [5] | binding [6] | binding [7] | binding [8] | binding [9] | binding [10] | binding [11] | binding [12] | binding [13] | binding [14] | binding [15] |
| --- | --- | --- | --- | --- | --- | --- | --- | --- | --- | --- | --- | --- | --- | --- | --- |
| B1 | no binding | binds | binds | no binding | binds | binds | no binding | no binding | no binding | no binding | no binding | binds | binds | – | – |
| B2 | no binding | binds | binds | no binding | binds | binds | binds | binds | binds | binds | binds | – | – | no binding | no binding |
